# Assay results reported in article PMC4336329 (PLoS ONE, 2015).
# The campaign covered roughly 310,000 compounds. About 14,000 (4.5%) showed an effect of 50% or more. Effects have a minus sign here. Some of the results follow.
# Molecular target: human ether-à-go-go-related gene (hERG) potassium channel (human, UniProt Q12809)
# Assay: primary screen, population patch clamp on CHO cells stably expressing hERG
# 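Further: peak tail current of the secondary pulse compared with the same well before compound.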
# Chain of human ether-à-go-go-related gene (hERG) potassium channel (Q12809 whole entry, looked up): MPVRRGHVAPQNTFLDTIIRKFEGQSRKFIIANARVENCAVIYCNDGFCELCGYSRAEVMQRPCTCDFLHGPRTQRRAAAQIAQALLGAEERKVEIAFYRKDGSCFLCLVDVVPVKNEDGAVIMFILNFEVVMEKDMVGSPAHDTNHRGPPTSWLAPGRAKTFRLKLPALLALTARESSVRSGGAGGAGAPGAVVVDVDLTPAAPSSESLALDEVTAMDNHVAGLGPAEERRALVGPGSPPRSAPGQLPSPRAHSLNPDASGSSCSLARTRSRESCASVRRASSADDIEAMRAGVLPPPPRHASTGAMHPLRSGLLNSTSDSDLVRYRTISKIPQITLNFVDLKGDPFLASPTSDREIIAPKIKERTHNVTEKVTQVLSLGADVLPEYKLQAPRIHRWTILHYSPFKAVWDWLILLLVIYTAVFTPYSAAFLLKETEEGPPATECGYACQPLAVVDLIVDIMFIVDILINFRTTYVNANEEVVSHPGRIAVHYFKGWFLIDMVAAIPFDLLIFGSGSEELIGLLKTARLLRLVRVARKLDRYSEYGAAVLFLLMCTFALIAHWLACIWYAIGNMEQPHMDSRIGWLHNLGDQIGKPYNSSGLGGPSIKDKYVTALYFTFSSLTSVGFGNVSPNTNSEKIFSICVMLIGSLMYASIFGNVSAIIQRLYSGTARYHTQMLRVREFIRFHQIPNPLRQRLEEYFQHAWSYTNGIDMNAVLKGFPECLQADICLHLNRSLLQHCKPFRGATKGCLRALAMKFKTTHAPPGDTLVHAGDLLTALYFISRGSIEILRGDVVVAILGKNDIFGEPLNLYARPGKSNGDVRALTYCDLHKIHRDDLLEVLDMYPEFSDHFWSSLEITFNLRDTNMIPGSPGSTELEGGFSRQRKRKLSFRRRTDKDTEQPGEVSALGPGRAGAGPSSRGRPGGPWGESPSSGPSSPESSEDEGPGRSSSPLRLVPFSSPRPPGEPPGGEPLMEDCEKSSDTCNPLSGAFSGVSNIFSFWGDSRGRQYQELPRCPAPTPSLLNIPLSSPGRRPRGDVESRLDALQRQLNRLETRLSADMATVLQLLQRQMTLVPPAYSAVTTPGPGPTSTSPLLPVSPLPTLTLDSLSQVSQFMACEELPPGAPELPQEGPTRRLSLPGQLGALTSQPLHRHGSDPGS
row,SMILES,"hERG current change (%, negative = inhibition) at 10uM"
1,CCCCc1ccc(NC(=S)NCc2ccccc2OC)cc1,7.58%
2,CCOC(=O)C1CCN(C(=O)c2c(-c3c(F)cccc3Cl)noc2C)CC1,-6.78%
3,COc1cc(S(=O)(=O)NCC2OCCc3ccccc32)ccc1-n1cnnn1 (stereo not shown),-17.2%
4,CCOCc1nnc(NC(C)=O)s1,8.81%
5,Cc1nc(C(=O)NC2CCCCC2)sc1C1(C)CC(c2cccc([N+](=O)[O-])c2)=NO1 (stereo not shown),4.11%
6,CCNC(=O)CC(=O)Nc1ccccc1C(=O)O,7.78%
7,CCc1nnc2cccc(Cl)n12,25.9%
8,Cc1ccc(CSCCNC(=O)c2ccc(Cl)c(S(=O)(=O)N3CCOCC3)c2)cc1,-40.5%
9,COc1ccc(C(=O)COC(=O)/C=C/c2ccccc2)c(OC)c1,13.7%
10,Cc1ccc(S(=O)(=O)CCC(=O)NCCN2C(=O)S/C(=C\c3ccccc3)C2=O)cc1,5.86%
11,COC(=O)c1ccccc1C(=O)c1cccc2ccccc12,10.8%
12,COc1cc(Cl)c(C)cc1NC(=O)c1ccccc1NC(=O)CN1CCOCC1,-58.7%
13,Cc1cc2n(n1)C(c1ccc(N(C)C)cc1)Nc1ccccc1-2 (stereo not shown),-12.1%
14,COc1cccc(C(=O)Nc2ccc(NC(=O)C(C)(C)C)cn2)c1,0.381%
15,Nc1ccc(S(=O)(=O)NCc2ccccn2)cc1,-1.59%
16,CCOc1ccc(C(C)NC(=O)CCC(=O)O)cc1 (stereo not shown),-2.57%
17,CC(=O)Nc1ccc(NC2=C/C(=N/S(=O)(=O)c3cccs3)c3ccccc3C2=O)cc1,31.2%
18,Cc1ccc(C(=O)NCCCNC(=O)Cc2ccccc2)cn1,19.6%
19,CC(=O)c1cc(NC(=O)c2cccc(C(F)(F)F)c2)c(=O)oc1C,1.42%
20,N#CC(C#N)=Cc1ccc(OCC(=O)N2CCOCC2)cc1,-5.53%

row,SMILES,"hERG current change (%, negative = inhibition) at 10uM"
1,CC1(C)C=C(c2ccc(O)cc2)CC(C)(C)N1,-4.44%
2,O=C(O)c1ccc(Cn2cc(Cl)cn2)cc1,18.7%
3,COc1cc(C2C(Oc3ccccc3C)C(=O)N2Cc2ccc(F)cc2)cc(OC)c1OC (stereo not shown),-5.54%
4,CC(=O)NCCOc1cccc2cccnc12,18.7%
5,Cc1nnc(SCC(=O)c2ccc([N+](=O)[O-])cc2)s1,-27.4%
6,CN(C)c1ccc(C(=O)N/N=C/C23CC[C@@H](O)CC2(O)CC[C@@H]2[C@@H]3CCC3(C)C(C4=CC(=O)OC4)CCC23O)cc1 (stereo partly shown),5.94%
7,O=C(COC(=O)c1cc(-c2cccc(Br)c2)nc2ccccc12)NCC1CCCO1 (stereo not shown),8.76%
8,CNCCOc1ccccc1OC(C)C.O=C(O)C(=O)O,14%
9,COc1ccc(C(CC(=O)N2CCN(C)CC2)NC(=O)C(F)(F)F)cc1 (stereo not shown),5.21%
10,CC(C)N=C(N)N=C(N)Nc1ccc(Cl)cc1.Cl,-1.73%
11,CC(C)(C)SCCNC(=O)/C=C/c1ccccc1,-2.53%
12,N#C/C(=C(/O)c1ccc([N+](=O)[O-])o1)c1nc2ccccc2[nH]1,21.9%
13,Cc1cccc(N(CC(O)CN2CCOCC2)S(=O)(=O)c2ccccc2)c1 (stereo not shown),-1.7%
14,COc1cc(S(=O)(=O)NCCOC23CC4CC(CC(C4)C2)C3)c(OC)cc1Cl,5.03%
15,O=C(NC1CC1)C1CCN(C2CCN(C(=O)/C=C/c3cccc(F)c3F)CC2)CC1,-22.1%
16,COc1ccc(C(=O)Nc2ccccc2C(=O)Nc2ccc(C(=O)O)cc2)cc1,16.7%
17,Cc1cc(S(=O)(=O)N2CCC3(CC2)OCCN3S(=O)(=O)c2cccs2)ccc1F,-19.4%
18,COc1ccccc1NC(=O)N(Cc1cc2cc(OC)c(OC)cc2[nH]c1=O)CC1CCCO1 (stereo not shown),-9.13%
19,CC(C)NC(=O)CC(=O)NN=C1CCCCC1,12.8%
20,N/C(COc1ccc(F)cc1)=N\NC(=O)c1cccnc1Oc1ccccc1,-21.1%

row,SMILES,"hERG current change (%, negative = inhibition) at 10uM"
1,CCC1(C)Cc2ccccc2-c2nc3n(c(=O)c21)CCS3 (stereo not shown),15.3%
2,CC(C)(C)OC(=O)N1CCN(C(=O)c2cccnc2Cl)CC1,2.91%
3,Cc1cc(C)nc(N/N=C/c2ccc3c(c2)OCCO3)n1,21%
4,O=C(O)CSc1nnc(CNc2cccc(C(F)(F)F)c2)n1Cc1ccco1,17.6%
5,Cc1cc(C)n(C(=O)CCCn2cc([N+](=O)[O-])cn2)n1,-22%
6,CCCCCc1cc(=O)oc2c(C(CCN(CC)CC)c3cc(OC)c(OC)c(OC)c3)c(OC)cc(OC)c12 (stereo not shown),-38.2%
7,CCN(c1ccccc1)S(=O)(=O)c1ccc(C(=O)Nc2nnc(COC)o2)cc1,15.6%
8,COc1ccccc1CNC(=O)COn1nnc2ccc(S(=O)(=O)N3CCOCC3)cc21,5.9%
9,COc1ccc(NC(=S)N2CCN(c3ccccn3)CC2)cc1,-0.967%
10,CN(C)S(=O)(=O)c1ccc(N2CCOCC2)c(C(=O)O)c1,11.4%
11,O=C(NN1C(=O)C2C(C1=O)C1C=CC2C12CC2)c1cccnc1 (stereo not shown),17%
12,O=C(Nc1ccc(Cl)c(Cl)c1)c1ccc(Cl)c(Cl)c1,-4.2%
13,O=C(Cc1cccs1)NCc1cc(Cl)cc(Cl)c1,3.23%
14,O=C(Nc1cccc2ccccc12)/C(Cl)=C/c1ccccc1,-3.45%
15,C/C(CC(=O)Nc1ccc(F)cc1)=N\NC(=O)Cc1csc(N)n1,15.8%
16,Cc1cc(C=O)c2c(c1)C=CC1(Oc3ccccc3C(=O)N1C)O2 (stereo not shown),-6.89%
17,O=C(CN1C(=O)C2C3C=CC(C3)C2C1=O)Nc1ccc(F)cc1 (stereo not shown),11.9%
18,Cn1c(/C=C/c2cccc([N+](=O)[O-])c2)c([N+](=O)[O-])c(=O)n(C)c1=O,-37.2%
